Test results taken from paper PMC4336329 (PLoS ONE, 2015).
Screen size: about 310,000 compounds; about 2,200 (0.71%) showed an effect of 50% or more. Effects have a minus sign here. The list shows a part of the results.

Biological target: human ether-à-go-go-related gene (hERG) potassium channel (human, UniProt Q12809)
Assay: primary screen, population patch clamp on CHO cells stably expressing hERG

Sequence of human ether-à-go-go-related gene (hERG) potassium channel (Q12809 whole entry, looked up): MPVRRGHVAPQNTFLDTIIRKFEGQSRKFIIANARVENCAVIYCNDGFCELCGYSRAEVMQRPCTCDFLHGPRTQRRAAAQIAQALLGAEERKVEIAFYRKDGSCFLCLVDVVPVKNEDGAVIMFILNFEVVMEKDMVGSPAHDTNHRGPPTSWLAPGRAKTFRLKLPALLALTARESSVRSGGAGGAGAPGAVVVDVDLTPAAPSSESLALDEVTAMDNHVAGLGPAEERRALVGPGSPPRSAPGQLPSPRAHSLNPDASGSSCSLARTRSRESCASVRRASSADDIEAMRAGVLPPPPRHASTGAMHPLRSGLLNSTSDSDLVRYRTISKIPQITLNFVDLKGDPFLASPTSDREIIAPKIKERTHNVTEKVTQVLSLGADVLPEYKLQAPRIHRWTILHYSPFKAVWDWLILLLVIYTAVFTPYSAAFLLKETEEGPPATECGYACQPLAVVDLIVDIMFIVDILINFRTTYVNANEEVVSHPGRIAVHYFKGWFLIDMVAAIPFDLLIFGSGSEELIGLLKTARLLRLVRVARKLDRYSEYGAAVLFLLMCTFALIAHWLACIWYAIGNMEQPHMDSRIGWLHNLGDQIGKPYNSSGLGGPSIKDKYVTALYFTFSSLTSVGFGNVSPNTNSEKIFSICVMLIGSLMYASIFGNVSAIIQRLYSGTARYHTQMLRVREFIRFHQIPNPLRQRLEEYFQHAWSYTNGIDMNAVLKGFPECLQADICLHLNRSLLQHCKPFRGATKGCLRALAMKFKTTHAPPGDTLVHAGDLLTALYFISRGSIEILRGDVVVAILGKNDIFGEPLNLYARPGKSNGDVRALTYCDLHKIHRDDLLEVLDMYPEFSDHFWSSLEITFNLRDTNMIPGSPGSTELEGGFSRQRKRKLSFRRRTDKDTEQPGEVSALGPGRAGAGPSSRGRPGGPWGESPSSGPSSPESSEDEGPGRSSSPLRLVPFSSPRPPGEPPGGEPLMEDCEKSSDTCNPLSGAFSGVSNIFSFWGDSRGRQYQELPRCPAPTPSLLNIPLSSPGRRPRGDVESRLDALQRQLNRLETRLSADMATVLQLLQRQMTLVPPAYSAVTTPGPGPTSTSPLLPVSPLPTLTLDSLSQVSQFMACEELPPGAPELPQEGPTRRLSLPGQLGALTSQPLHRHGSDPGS

First: Cc1cc(N(CC(=O)O)S(C)(=O)=O)ccc1Br
Second: CCN(CC(=O)O)S(=O)(=O)c1cc(Cl)ccc1Cl
The “hERG current change (%, negative = inhibition) at 1uM” value of the first is lower: 9.49% for the first, 9.87% for the second.

Compared with `COc1ccc(C(=O)c2c[nH]c(C(=O)NCc3cccs3)c2)cc1`, `COc1ccc(OCC(=O)NNC(=O)c2cccc(O)c2)cc1` is higher in “hERG current change (%, negative = inhibition) at 1uM” value: 4.98% for the first, 13% for the second.

First: Cc1nn(CCC#N)c2c1P(=S)(N1CCCC1)OC(c1ccc(F)cc1)=N2 (stereo not drawn)
Second: CCOc1ccc(-c2ccc(SCC(=O)N3CCOCC3)nn2)cc1
The “hERG current change (%, negative = inhibition) at 1uM” value of the first is higher: -0.612% for the first, -4.36% for the second.

Going from `COC(=O)Cc1c(C)c2ccc(OCC(C)=O)c(C)c2oc1=O` to `COc1cc(C(=O)NCC(=O)N/N=C(C)\C=C\c2ccccc2)cc(OC)c1OC`, the “hERG current change (%, negative = inhibition) at 1uM” value rises from 4.3% to 17.5%.

Compared with `O=C(OCc1ccc2c(c1)OCO2)c1ccc(S(=O)(=O)N2CCCCC2)cc1`, `O=C(CSc1nccc(=O)[nH]1)Nc1cccc(S(=O)(=O)N2CCOCC2)c1` is higher in “hERG current change (%, negative = inhibition) at 1uM” value: 3.84% for the first, 11.4% for the second.

Going from `Cc1cc(C)c(C#N)c(N2CCN(C(=O)C3COc4ccccc4O3)CC2)n1` (stereo not drawn) to `Cc1cc2nc(N3CCN(C(=O)c4ccco4)CC3)sc2cc1C`, the “hERG current change (%, negative = inhibition) at 1uM” value rises from -1.46% to 20.2%.

Going from `CCCOc1ccc(N2C(=O)CC(N3CCC(c4nc5ccccc5o4)CC3)C2=O)cc1` (stereo not drawn) to `Cn1c(=O)n(Cc2ccccc2F)c(=O)c2c1nc1n2CCN1Cc1ccco1`, the “hERG current change (%, negative = inhibition) at 1uM” value falls from 5.39% to 2.75%.

First: Cc1ccc(NC(=O)N(Cc2cccs2)Cc2cc3cc4c(cc3[nH]c2=O)OCO4)cc1
Second: O=C(Nc1ccccc1)C1=C[C@H](c2ccc3c(c2)OCO3)C[C@H](OCCCCO)O1
The “hERG current change (%, negative = inhibition) at 1uM” value of the first is higher: 13% for the first, -5.43% for the second.

Compared with `O=C(NC1CCCCC1)c1ccc(Br)o1`, `O=C1c2cccnc2C(O)N1C1CCCCC1` (stereo not drawn) is lower in “hERG current change (%, negative = inhibition) at 1uM” value: 15.7% for the first, 8.36% for the second.

Going from `Nc1ccc2nc(-c3ccccc3)[nH]c2c1` to `Cc1ccc(-c2cc(=O)[nH]c3ccccc23)cc1`, the “hERG current change (%, negative = inhibition) at 1uM” value falls from 10.4% to 3.95%.

First: CC1=NN(C(=O)COc2ccc(C)c(C)c2)C(O)(c2ccccc2)C1 (stereo not drawn)
Second: O=c1c2ccccc2cnn1CCOc1cccc(Br)c1
The “hERG current change (%, negative = inhibition) at 1uM” value of the first is lower: 4.01% for the first, 13.5% for the second.

First: Cc1cccc(NC(=O)CSc2nnc(CCCCCNC(=O)OC(C)(C)C)o2)c1C
Second: Cc1cc(NC(=O)CSc2nnc(-c3cccnc3)n2C)no1
The “hERG current change (%, negative = inhibition) at 1uM” value of the first is lower: 1.55% for the first, 14.4% for the second.

Compared with `CCc1ccc(NC(=O)CC2C(=O)N(c3ccc(C)cc3)C(=O)N2CCc2ccncc2)cc1` (stereo not drawn), `CCN(C(=O)COC(=O)c1cc(-c2ccccc2)nc2c1c(C)nn2-c1ccc(C)cc1)C1CCS(=O)(=O)C1` (stereo not drawn) is higher in “hERG current change (%, negative = inhibition) at 1uM” value: 0.623% for the first, 2.31% for the second.

First: Nc1nonc1C(=O)NCCNc1ccc([N+](=O)[O-])cc1
Second: Cc1ccc(C(=O)NCCNc2ccc([N+](=O)[O-])cc2C(F)(F)F)cc1
The “hERG current change (%, negative = inhibition) at 1uM” value of the first is higher: 11.9% for the first, 7.09% for the second.

Compared with `O=C(c1cc(COc2cccc(C(F)(F)F)c2)on1)N1CCSCC1`, `O=C(Nc1cc(C(F)(F)F)ccc1N1CCOCC1)c1cccs1` is higher in “hERG current change (%, negative = inhibition) at 1uM” value: 7.57% for the first, 12.6% for the second.

Going from `Nc1nc(SCC(=O)Nc2cc(-c3ccccc3)nn2-c2ccccc2)n[nH]1` to `Cc1nn(-c2ccccc2)c2ncc(C(=O)c3cc(Cl)ccc3O)cc12`, the “hERG current change (%, negative = inhibition) at 1uM” value falls from 11.7% to 2.27%.

Going from `Cc1ccc(CNc2nnnn2C)cc1` to `Cc1nnc2sc(-c3cccc4ccccc34)nn12`, the “hERG current change (%, negative = inhibition) at 1uM” value falls from 9.85% to -4.8%.

Compared with `CCn1c(=O)c2cc(C(=O)NCCC(C)C)sc2c2ccccc21`, `CCN(CC)CCNC(=O)c1c(C)n(-c2ccccc2)c2cc(Br)c(OC)cc12` is lower in “hERG current change (%, negative = inhibition) at 1uM” value: 19.8% for the first, -6.93% for the second.

Going from `Cc1noc(C)c1CSc1cc(C)c2ccccc2n1` to `CN(C(=O)CSc1ncnc2sccc12)c1c(N)n(Cc2ccccc2)c(=O)[nH]c1=O`, the “hERG current change (%, negative = inhibition) at 1uM” value rises from 10.4% to 11.2%.

Compared with `CN(C)S(=O)(=O)c1cccc(NC(=O)c2cc3c(=O)n4ccccc4nc3s2)c1`, `COC(=O)C(Cc1ccccc1)NC(=O)c1cccc(S(=O)(=O)N(C)C)c1` (stereo not drawn) is lower in “hERG current change (%, negative = inhibition) at 1uM” value: 8.77% for the first, 4.5% for the second.

First: COc1cc2c(cc1Cl)/C(=C\CCN(C)C)c1ccccc1S2.O=S(=O)(O)O
Second: CN(C)CCN(C)Cc1c2ccccc2c(CN(C)CCN(C)C)c2ccccc12
The “hERG current change (%, negative = inhibition) at 1uM” value of the first is higher: 7.88% for the first, 6.77% for the second.

Compared with `Cc1cc([N+](=O)[O-])ccc1NCc1cccc([N+](=O)[O-])c1`, `Cc1ccn2cc(-c3cccc([N+](=O)[O-])c3)nc2c1` is higher in “hERG current change (%, negative = inhibition) at 1uM” value: -56.6% for the first, 4.2% for the second.

Going from `CC1CN(C(=O)CCNC(=O)c2ccc(Cl)cc2)CC(C)O1` (stereo not drawn) to `O=C(NCC(O)CN1CCOCC1)c1ccc([N+](=O)[O-])cc1` (stereo not drawn), the “hERG current change (%, negative = inhibition) at 1uM” value rises from 10.4% to 12.7%.

Compared with `O=C(O)c1ccc(O)c(N2C(=O)Nc3ccccc3N2O)c1`, `O=C(NC(Cc1ccccc1)C(=O)O)/C(=C/c1ccccc1)NC(=O)c1cccc(Br)c1` (stereo not drawn) is lower in “hERG current change (%, negative = inhibition) at 1uM” value: 11.3% for the first, 7.54% for the second.

Going from `CC1CCCN(C(=O)CNS(=O)(=O)c2cccs2)C1` (stereo not drawn) to `O=C(CCN1CCN(CCO)CC1)Nc1ccccc1.O=C(O)C(=O)O`, the “hERG current change (%, negative = inhibition) at 1uM” value rises from 7.97% to 14.3%.

Going from `O=S1(=O)N=C(Nc2nncs2)c2ccccc21` to `O=C(CCN1C(=O)C2CC=C(Cl)CC2C1=O)NCc1ccccc1` (stereo not drawn), the “hERG current change (%, negative = inhibition) at 1uM” value falls from 18% to 4.8%.

First: CC(C)CNC(=O)c1ccccc1SCC(=O)NC12CC3CC(CC(C3)C1)C2
Second: COc1ccc2nc(NC(=O)CSc3nc(SC)ns3)sc2c1
The “hERG current change (%, negative = inhibition) at 1uM” value of the first is lower: 3.63% for the first, 6.52% for the second.

Compared with `CSc1nc2ccc(NC(=O)c3ccc(F)c(F)c3)cc2s1`, `FC(F)(F)c1cccc(Cn2nnnc2-c2cccc(C(F)(F)F)c2)c1` is lower in “hERG current change (%, negative = inhibition) at 1uM” value: 13.2% for the first, -0.439% for the second.

For `CC1CN(c2ccccc2)NC1=O` (stereo not drawn), the “hERG current change (%, negative = inhibition) at 1uM” value was 3.87%.
